# Assay results: the supplement of paper PMC8728848
# Some of the results follow.
# B1: PFL (Pseudomonas fluorescens) (protein)
# chain: MSKYAVANQWGGSSAPWHPGGTWVLGARDNQNVVAIEIKSGDGGKSFTGTMTYAGEGPIGFKAQRTGQNQYNVENQWGGNDAPWHPGGKWVIGGRDNQNVIALSVTSSDGGKNLSGTNTYANEGPIGFRGQIE
# How the values were obtained:
# Assay in all cases: glycan array binding signal (z-score within array); higher = stronger binding
# Conditions in all cases: glycan notation: IUPAC condensed, linker removed
# [1] = target: GlcNAc(a1-6)Gal(b1-4)GlcNAc
# Procedure, shortened: (§1)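 Columns mapping to the same glycan were averaged after glycan names were converted to IUPAC-condensed notation. The data come from 3228 arrays in the Consortium for Functional Glycomics database, limited to those with an available protein sequence. Binding is reported as a within-array Z-score averaged across arrays of one protein sequence and across linkers.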
# [2] = target: GlcNAc(b1-2)Gal(b1-3)GalNAc
# Procedure, shortened: as §1
# [3] = target: GlcNAc(b1-2)Man(a1-3)[GlcNAc(b1-2)Man(a1-6)]Man(b1-4)GlcNAc(b1-4)GlcNAc
# Procedure, shortened: as §1
# [4] = target: GlcNAc(b1-2)Man(a1-3)[GlcNAc(b1-2)Man(a1-6)]Man(b1-4)GlcNAc(b1-4)[Fuc(a1-6)]GlcNAc
# Procedure, shortened: as §1
# [5] = target: GlcNAc(b1-2)Man(a1-3)[GlcNAc(b1-4)][GlcNAc(b1-2)Man(a1-6)]Man(b1-4)GlcNAc(b1-4)GlcNAc
# Procedure, shortened: as §1
# [6] = target: GlcNAc(b1-2)Man(a1-3)[GlcNAc(b1-4)][GlcNAc(b1-2)Man(a1-6)]Man(b1-4)GlcNAc(b1-4)[Fuc(a1-6)]GlcNAc
# Procedure, shortened: as §1
# [7] = target: GlcNAc(b1-2)[GlcNAc(b1-4)]Man(a1-3)[GlcNAc(b1-2)Man(a1-6)]Man(b1-4)GlcNAc(b1-4)GlcNAc
# Procedure, shortened: as §1
# [8] = target: GlcNAc(b1-2)[GlcNAc(b1-4)]Man(a1-3)[GlcNAc(b1-4)][GlcNAc(b1-2)Man(a1-6)]Man(b1-4)GlcNAc(b1-4)GlcNAc
# Procedure, shortened: as §1
# [9] = target: GlcNAc(b1-2)[GlcNAc(b1-4)]Man(a1-3)[GlcNAc(b1-4)][GlcNAc(b1-2)[GlcNAc(b1-6)]Man(a1-6)]Man(b1-4)GlcNAc(b1-4)GlcNAc
# Procedure, shortened: as §1
# [10] = target: GlcNAc(b1-2)[GlcNAc(b1-4)]Man(a1-3)[GlcNAc(b1-4)][GlcNAc(b1-2)[GlcNAc(b1-6)]Man(a1-6)]Man(b1-4)GlcNAc(b1-4)[Fuc(a1-6)]GlcNAc
# Procedure, shortened: as §1
# [11] = target: GlcNAc(b1-2)[GlcNAc(b1-6)]Man(a1-6)[GlcNAc(b1-2)Man(a1-3)]Man(b1-4)GlcNAc(b1-4)GlcNAc
# Procedure, shortened: as §1
# [12] = target: GlcNAc(b1-2)[GlcNAc(b1-6)]Man(a1-6)[GlcNAc(b1-2)Man(a1-3)]Man(b1-4)GlcNAc(b1-4)[Fuc(a1-6)]GlcNAc
# Procedure, shortened: as §1
# [13] = target: GlcNAc(b1-2)[GlcNAc(b1-6)]Man(a1-6)[GlcNAc(b1-4)][GlcNAc(b1-2)Man(a1-3)]Man(b1-4)GlcNAc(b1-4)GlcNAc
# Procedure, shortened: as §1
# GlcNAc(b1-3)Fuc = target: GlcNAc(b1-3)Fuc
# Procedure, shortened: as §1
# GlcNAc(b1-3)Gal = target: GlcNAc(b1-3)Gal
# Procedure, shortened: as §1
# [14] = target: GlcNAc(b1-3)Gal(b1-3)GalNAc
# Procedure, shortened: as §1
# GlcNAc(b1-3)Gal(b1-4)Glc = target: GlcNAc(b1-3)Gal(b1-4)Glc
# Procedure, shortened: as §1
# [15] = target: GlcNAc(b1-3)Gal(b1-4)GlcNAc
# Procedure, shortened: as §1
# [16] = target: GlcNAc(b1-3)Gal(b1-4)GlcNAc(b1-2)Man(a1-3)[GlcNAc(b1-3)Gal(b1-4)GlcNAc(b1-2)Man(a1-6)]Man(b1-4)GlcNAc(b1-4)GlcNAc
# Procedure, shortened: as §1
# [17] = target: GlcNAc(b1-3)Gal(b1-4)GlcNAc(b1-2)Man(a1-3)[GlcNAc(b1-3)Gal(b1-4)GlcNAc(b1-2)Man(a1-6)]Man(b1-4)GlcNAc(b1-4)[Fuc(a1-6)]GlcNAc
# Procedure, shortened: as §1
# [18] = target: GlcNAc(b1-3)Gal(b1-4)GlcNAc(b1-2)[GlcNAc(b1-3)Gal(b1-4)GlcNAc(b1-6)]Man(a1-6)[GlcNAc(b1-3)Gal(b1-4)GlcNAc(b1-2)Man(a1-3)]Man(b1-4)GlcNAc(b1-4)GlcNAc
# Procedure, shortened: as §1
# [19] = target: GlcNAc(b1-3)Gal(b1-4)GlcNAc(b1-3)Gal(b1-4)GlcNAc
# Procedure, shortened: as §1
# [20] = target: GlcNAc(b1-3)Gal(b1-4)GlcNAc(b1-3)Gal(b1-4)GlcNAc(b1-2)Man(a1-3)[GlcNAc(b1-3)Gal(b1-4)GlcNAc(b1-3)Gal(b1-4)GlcNAc(b1-2)Man(a1-6)]Man(b1-4)GlcNAc(b1-4)GlcNAc
# Procedure, shortened: as §1
# [21] = target: GlcNAc(b1-3)Gal(b1-4)GlcNAc(b1-3)Gal(b1-4)GlcNAc(b1-2)Man(a1-3)[GlcNAc(b1-3)Gal(b1-4)GlcNAc(b1-3)Gal(b1-4)GlcNAc(b1-2)Man(a1-6)]Man(b1-4)GlcNAc(b1-4)[Fuc(a1-6)]GlcNAc
# Procedure, shortened: as §1
# [22] = target: GlcNAc(b1-3)Gal(b1-4)GlcNAc(b1-3)Gal(b1-4)GlcNAc(b1-2)[GlcNAc(b1-3)Gal(b1-4)GlcNAc(b1-3)Gal(b1-4)GlcNAc(b1-6)]Man(a1-6)[GlcNAc(b1-3)Gal(b1-4)GlcNAc(b1-3)Gal(b1-4)GlcNAc(b1-2)Man(a1-3)]Man(b1-4)GlcNAc(b1-4)[Fuc(a1-6)]GlcNAc
# Procedure, shortened: as §1
# [23] = target: GlcNAc(b1-3)Gal(b1-4)GlcNAc(b1-3)Gal(b1-4)GlcNAc(b1-3)Gal(b1-4)GlcNAc(b1-2)Man(a1-3)[GlcNAc(b1-3)Gal(b1-4)GlcNAc(b1-3)Gal(b1-4)GlcNAc(b1-3)Gal(b1-4)GlcNAc(b1-2)Man(a1-6)]Man(b1-4)GlcNAc(b1-4)GlcNAc
# Procedure, shortened: as §1
# [24] = target: GlcNAc(b1-3)Gal(b1-4)GlcNAc(b1-3)Gal(b1-4)GlcNAc(b1-3)Gal(b1-4)GlcNAc(b1-2)Man(a1-3)[GlcNAc(b1-3)Gal(b1-4)GlcNAc(b1-3)Gal(b1-4)GlcNAc(b1-3)Gal(b1-4)GlcNAc(b1-2)Man(a1-6)]Man(b1-4)GlcNAc(b1-4)[Fuc(a1-6)]GlcNAc
# Procedure, shortened: as §1
# [25] = target: GlcNAc(b1-3)Gal(b1-4)GlcNAc(b1-3)Gal(b1-4)GlcNAc(b1-3)Gal(b1-4)GlcNAc(b1-2)[GlcNAc(b1-3)Gal(b1-4)GlcNAc(b1-3)Gal(b1-4)GlcNAc(b1-3)Gal(b1-4)GlcNAc(b1-6)]Man(a1-6)[GlcNAc(b1-3)Gal(b1-4)GlcNAc(b1-3)Gal(b1-4)GlcNAc(b1-3)Gal(b1-4)GlcNAc(b1-2)Man(a1-3)]Man(b1-4)GlcNAc(b1-4)[Fuc(a1-6)]GlcNAc
# Procedure, shortened: as §1
# [26] = target: GlcNAc(b1-3)Gal(b1-4)GlcNAc(b1-3)Gal(b1-4)GlcNAc(b1-3)Gal(b1-4)GlcNAc(b1-3)Gal(b1-4)GlcNAc(b1-2)Man(a1-3)[GlcNAc(b1-3)Gal(b1-4)GlcNAc(b1-3)Gal(b1-4)GlcNAc(b1-3)Gal(b1-4)GlcNAc(b1-3)Gal(b1-4)GlcNAc(b1-2)Man(a1-6)]Man(b1-4)GlcNAc(b1-4)GlcNAc
# Procedure, shortened: as §1
# [27] = target: GlcNAc(b1-3)Gal(b1-4)GlcNAc(b1-3)Gal(b1-4)GlcNAc(b1-3)Gal(b1-4)GlcNAc(b1-3)Gal(b1-4)GlcNAc(b1-2)Man(a1-3)[GlcNAc(b1-3)Gal(b1-4)GlcNAc(b1-3)Gal(b1-4)GlcNAc(b1-3)Gal(b1-4)GlcNAc(b1-3)Gal(b1-4)GlcNAc(b1-2)Man(a1-6)]Man(b1-4)GlcNAc(b1-4)[Fuc(a1-6)]GlcNAc
# Procedure, shortened: as §1
# [28] = target: GlcNAc(b1-3)Gal(b1-4)GlcNAc(b1-3)Gal(b1-4)GlcNAc(b1-3)Gal(b1-4)GlcNAc(b1-3)Gal(b1-4)GlcNAc(b1-2)[GlcNAc(b1-3)Gal(b1-4)GlcNAc(b1-3)Gal(b1-4)GlcNAc(b1-3)Gal(b1-4)GlcNAc(b1-3)Gal(b1-4)GlcNAc(b1-6)]Man(a1-6)[GlcNAc(b1-3)Gal(b1-4)GlcNAc(b1-3)Gal(b1-4)GlcNAc(b1-3)Gal(b1-4)GlcNAc(b1-3)Gal(b1-4)GlcNAc(b1-2)Man(a1-3)]Man(b1-4)GlcNAc(b1-4)[Fuc(a1-6)]GlcNAc
# Procedure, shortened: as §1
# [29] = target: GlcNAc(b1-3)Gal(b1-4)GlcNAc(b1-3)Gal(b1-4)GlcNAc(b1-3)GalNAc
# Procedure, shortened: as §1
# [30] = target: GlcNAc(b1-3)Gal(b1-4)GlcNAc(b1-3)GalNAc
# Procedure, shortened: as §1
# [31] = target: GlcNAc(b1-3)Gal(b1-4)GlcNAc(b1-3)[GlcNAc(b1-3)Gal(b1-4)GlcNAc(b1-3)]GalNAc
# Procedure, shortened: as §1
# [32] = target: GlcNAc(b1-3)Gal(b1-4)GlcNAc(b1-6)[Gal(b1-3)]GalNAc
# Procedure, shortened: as §1
# [33] = target: GlcNAc(b1-3)Gal(b1-4)GlcNAc(b1-6)[GlcNAc(b1-3)Gal(b1-3)]GalNAc
# Procedure, shortened: as §1
# [34] = target: GlcNAc(b1-3)Gal(b1-4)GlcNAc(b1-6)[GlcNAc(b1-3)]Gal(b1-4)GlcNAc
# Procedure, shortened: as §1
# GlcNAc(b1-3)GalNAc = target: GlcNAc(b1-3)GalNAc
# Procedure, shortened: as §1
# GlcNAc(b1-3)Man = target: GlcNAc(b1-3)Man
# Procedure, shortened: as §1
# [35] = target: GlcNAc(b1-3)[GlcNAc(b1-4)][GlcNAc(b1-6)]GlcNAc
# Procedure, shortened: as §1
# [36] = target: GlcNAc(b1-3)[GlcNAc(b1-6)]Gal(b1-4)GlcNAc
# Procedure, shortened: as §1
# [37] = target: GlcNAc(b1-3)[GlcNAc(b1-6)]GalNAc
# Procedure, shortened: as §1
# [38] = target: GlcNAc(b1-4)Gal(b1-4)GlcNAc
# Procedure, shortened: as §1
# GlcNAc(b1-4)GlcNAc = target: GlcNAc(b1-4)GlcNAc
# Procedure, shortened: as §1
# [39] = target: GlcNAc(b1-4)GlcNAc(b1-4)GlcNAc
# Procedure, shortened: as §1
binder,measurement,setting,value
B1,glycan array binding signal (z-score),[1],-0.117
same,glycan array binding signal (z-score),[2],-0.113
same,glycan array binding signal (z-score),[3],-0.116
same,glycan array binding signal (z-score),[4],0.012
same,glycan array binding signal (z-score),[5],-0.114
same,glycan array binding signal (z-score),[6],-0.113
same,glycan array binding signal (z-score),[7],-0.069
same,glycan array binding signal (z-score),[8],-0.11
same,glycan array binding signal (z-score),[9],-0.117
same,glycan array binding signal (z-score),[10],-0.119
same,glycan array binding signal (z-score),[11],-0.114
same,glycan array binding signal (z-score),[12],-0.102
same,glycan array binding signal (z-score),[13],-0.113
same,glycan array binding signal (z-score),GlcNAc(b1-3)Fuc,-0.109
same,glycan array binding signal (z-score),GlcNAc(b1-3)Gal,-0.116
same,glycan array binding signal (z-score),[14],-0.113
same,glycan array binding signal (z-score),GlcNAc(b1-3)Gal(b1-4)Glc,-0.117
same,glycan array binding signal (z-score),[15],-0.116
same,glycan array binding signal (z-score),[16],-0.111
same,glycan array binding signal (z-score),[17],-0.025
same,glycan array binding signal (z-score),[18],-0.08
same,glycan array binding signal (z-score),[19],-0.114
same,glycan array binding signal (z-score),[20],-0.108
same,glycan array binding signal (z-score),[21],-0.096
same,glycan array binding signal (z-score),[22],-0.11
same,glycan array binding signal (z-score),[23],-0.114
same,glycan array binding signal (z-score),[24],-0.096
same,glycan array binding signal (z-score),[25],-0.109
same,glycan array binding signal (z-score),[26],-0.109
same,glycan array binding signal (z-score),[27],0.02
same,glycan array binding signal (z-score),[28],-0.106
same,glycan array binding signal (z-score),[29],-0.11
same,glycan array binding signal (z-score),[30],-0.112
same,glycan array binding signal (z-score),[31],-0.11
same,glycan array binding signal (z-score),[32],-0.115
same,glycan array binding signal (z-score),[33],-0.112
same,glycan array binding signal (z-score),[34],-0.118
same,glycan array binding signal (z-score),GlcNAc(b1-3)GalNAc,-0.114
same,glycan array binding signal (z-score),GlcNAc(b1-3)Man,-0.116
same,glycan array binding signal (z-score),[35],-0.116
same,glycan array binding signal (z-score),[36],-0.112
same,glycan array binding signal (z-score),[37],-0.116
same,glycan array binding signal (z-score),[38],-0.118
same,glycan array binding signal (z-score),GlcNAc(b1-4)GlcNAc,-0.11
same,glycan array binding signal (z-score),[39],-0.117
